# In a collection of fitness landscapes (doi:10.1126/science.1257360):
# The other results are listed elsewhere or left out.
# B1: PhoQ; a variant is named by its letters at X, in order, P23837 (parent)
# chain: MKKLLRLFFPLSLRVRFLLATAAVVLVLSLAYGMVALIGYSVSFDKTTFRLLRGESNLFYTLAKWENNKLHVELPENIDKQSPTMTLIYDENGQLLWAQRDVPWLMKMIQPDWLKSNGFHEIEADVNDTSLLLSGDHSIQQQLQEVREDDDDAEMTHSVAVNVYPATSRMPKLTIVVVDTIPVELKSSYMVWSWFIYVLSANLLLVIPLLWVAAWWSLRPIEALAKEVRELEEHNRELLNPATTRELTSLVRNLNRLLKSERERYDKYRTTLTDLTHSLKTPLXXLQXXLRSLRSEKMSVSDAEPVMLEQISRISQQIGYYLHRASMRGGTLLSRELHPVAPLLDNLTSALNKVYQRKGVNISLDISPEISFVGEQNDFVEVMGNVLDNACKYCLEFVEISARQTDEHLYIVVEDDGPGIPLSKREVIFDRGQRVDTLRPGQGVGLAVAREITEQYEGKIVAGESMLGGARMEVIFGRQHSAPKDE
# Variants of: B1
# Experiment: enrichment ratio after two sorts for PhoP signalling (ratio (wild type AVST 3.29)); higher = more functional
# Conditions: with PhoP (E. coli)
row,Variant,enrichment ratio
1,TPSI,≤ 0.25
2,GCML,3.33
3,VQTP,≤ 0.25
4,VYFC,≤ 0.25
5,MHKV,≤ 0.25
6,IRNV,≤ 0.25
7,SKVP,≤ 0.25
8,DWHF,≤ 0.25
9,MMGN,≤ 0.25
10,GCRM,≤ 0.25
11,GSAN,≤ 0.25
12,LSCN,≤ 0.25
13,DLYA,≤ 0.25
14,TKIL,8.86
15,LSLT,≤ 0.25
16,LWHC,≤ 0.25
17,DRVN,≤ 0.25
18,EHDC,≤ 0.25
19,FHKW,≤ 0.25
20,LIQG,≤ 0.25
21,PYPI,0.499
22,IGIN,≤ 0.25
23,SAHL,1.54
24,KRPD,≤ 0.25

row,Variant,enrichment ratio
1,TGFC,0.254
2,VPQR,≤ 0.25
3,IQDN,≤ 0.25
4,VMTS,≤ 0.25
5,FWLD,≤ 0.25
6,EITL,≤ 0.25
7,HQAQ,≤ 0.25
8,VMWP,≤ 0.25
9,SPCL,≤ 0.25
10,HNFD,≤ 0.25
11,WPLL,≤ 0.25
12,RHIL,≤ 0.25
13,GNMP,≤ 0.25
14,NTGV,≤ 0.25
15,YLRA,≤ 0.25
16,IYAT,≤ 0.25
17,YSHP,≤ 0.25
18,KWSF,≤ 0.25
19,PTML,≤ 0.25
20,WVIK,≤ 0.25
21,PWGD,≤ 0.25
22,DMLE,≤ 0.25
23,DPVT,≤ 0.25
24,SHNV,1.91

row,Variant,enrichment ratio
1,DVEG,≤ 0.25
2,AHVK,≤ 0.25
3,GFRH,≤ 0.25
4,PVHQ,≤ 0.25
5,FCKN,≤ 0.25
6,QIAV,≤ 0.25
7,DNHK,≤ 0.25
8,WHKV,≤ 0.25
9,VEHH,≤ 0.25
10,QDLM,≤ 0.25
11,TGIG,4.21
12,DSPT,≤ 0.25
13,SDRC,≤ 0.25
14,QYTQ,≤ 0.25
15,HQHE,≤ 0.25
16,HRRR,≤ 0.25
17,NLIM,≤ 0.25
18,GFSR,≤ 0.25
19,RNGQ,≤ 0.25
20,LHAA,≤ 0.25
21,GKTG,≤ 0.25
22,APFW,≤ 0.25
23,TVLG,2.52
24,DEIW,≤ 0.25

row,Variant,enrichment ratio
1,HFWT,≤ 0.25
2,NDYP,≤ 0.25
3,SRSN,≤ 0.25
4,SMIL,≤ 0.25
5,YRPV,≤ 0.25
6,LWGT,≤ 0.25
7,QSFV,7.11
8,YMTS,≤ 0.25
9,IQKK,≤ 0.25
10,SIYC,0.522
11,SIIV,0.966
12,IIIP,≤ 0.25
13,KHDQ,≤ 0.25
14,TEDR,≤ 0.25
15,HDEH,≤ 0.25
16,FMGF,≤ 0.25
17,FCYK,≤ 0.25
18,NMHF,≤ 0.25
19,QRRY,≤ 0.25
20,TLKP,≤ 0.25
21,RYWV,≤ 0.25
22,TPPE,≤ 0.25
23,RFYN,≤ 0.25
24,HMFK,≤ 0.25

row,Variant,enrichment ratio
1,KECQ,≤ 0.25
2,PPGM,≤ 0.25
3,LKLC,≤ 0.25
4,IGAP,≤ 0.25
5,RMRK,≤ 0.25
6,RQLW,≤ 0.25
7,REDH,≤ 0.25
8,GGDY,≤ 0.25
9,ERFP,≤ 0.25
10,WYRH,≤ 0.25
11,NAKL,≤ 0.25
12,LVTM,≤ 0.25
13,SERD,≤ 0.25
14,DSIQ,≤ 0.25
15,VCMA,≤ 0.25
16,PCSH,≤ 0.25
17,ICQI,≤ 0.25
18,YKSN,≤ 0.25
19,QVGF,5.91
20,LNNI,≤ 0.25
21,DPYS,≤ 0.25
22,YFGL,≤ 0.25
23,PTTP,≤ 0.25
24,TRQM,≤ 0.25

row,Variant,enrichment ratio
1,YNPY,≤ 0.25
2,NLDR,≤ 0.25
3,GNIK,≤ 0.25
4,ICIG,≤ 0.25
5,KLRQ,≤ 0.25
6,FLEY,≤ 0.25
7,VIFR,≤ 0.25
8,LPAY,≤ 0.25
9,DTQP,≤ 0.25
10,VPGM,≤ 0.25
11,VFTR,≤ 0.25
12,TRWM,≤ 0.25
13,AYEG,≤ 0.25
14,YQLL,3.83
15,WIPA,≤ 0.25
16,TDYR,≤ 0.25
17,PDSY,≤ 0.25
18,RERG,≤ 0.25
19,STWD,≤ 0.25
20,LKCT,≤ 0.25
21,IRAA,≤ 0.25
22,MDSS,≤ 0.25
23,RLQT,≤ 0.25
24,NHDR,≤ 0.25

row,Variant,enrichment ratio
1,QKSF,≤ 0.25
2,GNFY,≤ 0.25
3,LNNC,≤ 0.25
4,NQID,≤ 0.25
5,HKMP,≤ 0.25
6,HLSV,≤ 0.25
7,RAGK,≤ 0.25
8,DEIV,≤ 0.25
9,LRPT,≤ 0.25
10,ASNK,≤ 0.25
11,YPMM,≤ 0.25
12,ILQT,≤ 0.25
13,EIFS,≤ 0.25
14,VMKL,≤ 0.25
15,NTQY,≤ 0.25
16,GRWM,≤ 0.25
17,HMYW,≤ 0.25
18,NHGH,≤ 0.25
19,SKEF,≤ 0.25
20,SIWY,≤ 0.25
21,ARMS,1.54
22,PRAR,≤ 0.25
23,EFDC,≤ 0.25
24,SGRR,≤ 0.25

row,Variant,enrichment ratio
1,WQFH,≤ 0.25
2,DTWF,≤ 0.25
3,DRPP,≤ 0.25
4,TRFI,≤ 0.25
5,VVTC,≤ 0.25
6,SLTH,5.18
7,RSQQ,≤ 0.25
8,SPFI,≤ 0.25
9,GRDP,≤ 0.25
10,TPCW,≤ 0.25
11,DKAS,≤ 0.25
12,SKNT,≤ 0.25
13,ELHS,≤ 0.25
14,QREY,≤ 0.25
15,VEVN,1.11
16,IMHQ,≤ 0.25
17,PWGP,≤ 0.25
18,ECFM,≤ 0.25
19,NYVM,≤ 0.25
20,ARGN,≤ 0.25
21,IWIM,≤ 0.25
22,YQDQ,≤ 0.25
23,PMHF,≤ 0.25
24,ASEH,≤ 0.25

row,Variant,enrichment ratio
1,IRKQ,≤ 0.25
2,VKHQ,≤ 0.25
3,NETY,≤ 0.25
4,IING,≤ 0.25
5,VAHN,≤ 0.25
6,HGCG,≤ 0.25
7,WHIK,≤ 0.25
8,QIRQ,≤ 0.25
9,IRGA,≤ 0.25
10,YHRP,≤ 0.25
11,IGGS,≤ 0.25
12,PRNK,≤ 0.25
13,HDRG,≤ 0.25
14,KVYW,≤ 0.25
15,YGAM,≤ 0.25
16,HFLP,≤ 0.25
17,EKAV,≤ 0.25
18,WMWS,≤ 0.25
19,PFVV,≤ 0.25
20,PTVI,≤ 0.25
21,WRHG,≤ 0.25
22,EPIE,≤ 0.25
23,NYIH,≤ 0.25
24,FNVF,≤ 0.25

row,Variant,enrichment ratio
1,SENA,≤ 0.25
2,MDMQ,≤ 0.25
3,YFIP,≤ 0.25
4,TYPF,≤ 0.25
5,CSLF,2.21
6,TKSQ,2.92
7,YHCT,≤ 0.25
8,FHGH,0.782
9,DNCE,≤ 0.25
10,MRKI,≤ 0.25
11,LCIN,≤ 0.25
12,NILR,≤ 0.25
13,QSYQ,9.67
14,SHWK,≤ 0.25
15,LLVC,≤ 0.25
16,FTRA,≤ 0.25
17,NISS,≤ 0.25
18,MWYR,≤ 0.25
19,GSPL,≤ 0.25
20,HLKC,≤ 0.25
21,QGLE,≤ 0.25
22,KFPS,≤ 0.25
23,SMCR,8.61
24,HYYQ,≤ 0.25

row,Variant,enrichment ratio
1,FLMY,≤ 0.25
2,HRAM,≤ 0.25
3,TCIE,≤ 0.25
4,LGYP,≤ 0.25
5,NTNS,≤ 0.25
6,RMTF,≤ 0.25
7,WQCL,≤ 0.25
8,PKPD,≤ 0.25
9,SNQK,≤ 0.25
10,ELEN,≤ 0.25
11,NNWT,≤ 0.25
12,QDNF,≤ 0.25
13,LRHA,≤ 0.25
14,MTTY,≤ 0.25
15,VDHA,≤ 0.25
16,RRHR,≤ 0.25
17,ALVW,≤ 0.25
18,PYHD,≤ 0.25
19,NISF,≤ 0.25
20,LYRP,≤ 0.25
21,FRWY,≤ 0.25
22,SHLL,8.92
23,EYHC,≤ 0.25
24,NDAP,≤ 0.25

row,Variant,enrichment ratio
1,DERT,≤ 0.25
2,ESYC,≤ 0.25
3,NKCV,≤ 0.25
4,GNFH,≤ 0.25
5,QVFH,≤ 0.25
6,WVHL,≤ 0.25
7,VGWA,≤ 0.25
8,LARC,≤ 0.25
9,PAYT,≤ 0.25
10,PPHW,≤ 0.25
11,QSNC,≤ 0.25
12,GLLL,11.7
13,MSNN,≤ 0.25
14,SVVH,2.61
15,MTGY,14.4
16,WDWH,≤ 0.25
17,FWAQ,≤ 0.25
18,SKLE,8.51
19,FDRP,≤ 0.25
20,IGPS,0.55
21,RTNG,≤ 0.25
22,RKCL,≤ 0.25
23,VNEQ,≤ 0.25
24,WDGT,≤ 0.25

row,Variant,enrichment ratio
1,PSYL,≤ 0.25
2,HKLP,≤ 0.25
3,PTWI,≤ 0.25
4,YNPG,≤ 0.25
5,RKPF,≤ 0.25
6,FVNI,≤ 0.25
7,LQCH,≤ 0.25
8,YNGH,0.32
9,GMAW,≤ 0.25
10,RNHQ,≤ 0.25
11,NCPL,≤ 0.25
12,WFDG,≤ 0.25
13,VKDK,≤ 0.25
14,KSTT,≤ 0.25
15,HMAT,≤ 0.25
16,MNSS,0.46
17,WGVH,≤ 0.25
18,DLAY,≤ 0.25
